Results taken from patent publication US20240336672A1.

B1: COV2-2196 (parental IgG1 version) (antibody, V domains shown)
VH: QMQLVQSGPEVKKPGTSVKVSCKASGFTFMSSAVQWVRQARGQRLEWIGWIVIGSGNTNYAQKFQERVTITRDMSTSTAYMELSSLRSEDTAVYYCAAPYCSSISCNDGFDIWGQGTMVTVSS
VL: [omitted - about 100 residues]GWTFGQGTKVEIK
B2: Tixagevimab (antibody)
heavy chain: B1 VH
light chain: [omitted - about 100 residues]GWTFGQGTKVEIK

Key:
Settings in all cases: remark: other sources report otherwise
[1] = target: T1, SARS-CoV-2 delta variant B.1.617.2/3 RBD domain (SARS-CoV-2); test: ELISA; design: unit not given beside the values
[2] = target: SARS-CoV-2 RBD (B.1.1.7) domain (SARS-CoV-2); test: ELISA; design: unit not given beside the values
[3] = target: SARS-CoV-2 RBD domain, Wuhan (SARS-CoV-2); test: ELISA; design: unit not given beside the values
[4] = target: SARS-CoV-2 delta plus variant RBD (SARS-CoV-2); test: ELISA; design: unit not given beside the values
[5] = target: SARS-CoV-2 RBD (P.1) domain (SARS-CoV-2); test: ELISA; design: unit not given beside the values
[6] = target: T2, SARS-CoV-2 kappa variant B.1.617.1/3 RBD domain (SARS-CoV-2); test: ELISA; design: unit not given beside the values
[7] = target: T1, SARS-CoV-2 delta variant B.1.617.2/3 …; test: RBD/ACE2 blocking ELISA
[8] = target: SARS-CoV-2 RBD (B.1.1.7) domain (SARS-CoV-2); test: RBD/ACE2 blocking ELISA
[9] = target: SARS-CoV-2 RBD (B.1.351) domain (SARS-CoV-2); test: RBD/ACE2 blocking ELISA
[10] = target: SARS-CoV-2 RBD domain, Wuhan (SARS-CoV-2); test: RBD/ACE2 blocking ELISA
[11] = target: SARS-CoV-2 delta plus variant RBD (SARS-CoV-2); test: RBD/ACE2 blocking ELISA
[12] = target: SARS-CoV-2 RBD (P.1) domain (SARS-CoV-2); test: RBD/ACE2 blocking ELISA
[13] = target: T2, SARS-CoV-2 kappa variant B.1.617.1/3 …; test: RBD/ACE2 blocking ELISA
[14] = target: SARS-CoV-2 RBD (B.1.351) domain (SARS-CoV-2); test: ELISA; unit from paragraph 452, none printed in the heatmap
[15] = target: SARS-CoV-2 omicron variant B.1.1.529 RBD domain (SARS-CoV-2); test: as above

Binder	AUC [1]	AUC [2]	AUC [3]	AUC [4]	AUC [5]	AUC [6]	% binding inhibition [7]	% binding inhibition [8]	% binding inhibition [9]	% binding inhibition [10]	% binding inhibition [11]	% binding inhibition [12]	% binding inhibition [13]	EC50 [14]	EC50 [15]
B1	3	3	3	3	4	4	92%	83%	58%	97%	96%	44%	91%		
B2														0.006 µg/mL	2.08 µg/mL
